From article PMC5828198, “The relationship of NM23 (NME) metastasis suppressor histidine phosphorylation to its nucleoside diphosphate kinase, histidine protein kinase and motility suppression activities” (Oncotarget, 2017) come the findings set out here.

The data set concerns the molecule itself. As to the kind of experiment: native gel or EMSA; Blue native PAGE (NativePAGE Novex 4-16% Bis-Tris); 8 ug recombinant protein mixed with or without ATP (1 uM), 30 min at room temperature; run at near neutral pH (7.5), 4°C.

B1: His6-Hs.NME1^P96S (enzyme)
chain: not shown
notes: NME1 (NM23, nucleoside diphosphate kinase), human (Hs.), P96S mutant, His tagged construct His6-Hs.NME1^P96S; Same construct as m1 with P96S (the killer of prune mutation); also called NME^P96S
As for B1, the “stoichiometry N” value worked out at 6.

B2: His6-Hs.NME1^H118F (enzyme)
chain: not shown
notes: NME1 (NM23, nucleoside diphosphate kinase), human (Hs.), H118F mutant, His tagged construct His6-Hs.NME1^H118F; Same construct as m1 with H118F (the autophosphorylation site)
As to B2, the “stoichiometry N” value was 6.
